The source of these data is the supplement of paper PMC10681739.

± gives the standard deviation of the averaged measurements. Over roughly 4,000 sequences, “arbitrary fluorescence units” has its median near 830; the highest 2% begin near 6,500. The list lacks most of the strong results.
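Note: Full-length recombinant human RUNX1 bound to double-stranded DNA microarray spots, detected with an Alexa488-labelled secondary antibody after the anti-RUNX1 primary, read as scanned spot fluorescence.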

Sequence of UniProt Q01196 (Q01196 whole entry): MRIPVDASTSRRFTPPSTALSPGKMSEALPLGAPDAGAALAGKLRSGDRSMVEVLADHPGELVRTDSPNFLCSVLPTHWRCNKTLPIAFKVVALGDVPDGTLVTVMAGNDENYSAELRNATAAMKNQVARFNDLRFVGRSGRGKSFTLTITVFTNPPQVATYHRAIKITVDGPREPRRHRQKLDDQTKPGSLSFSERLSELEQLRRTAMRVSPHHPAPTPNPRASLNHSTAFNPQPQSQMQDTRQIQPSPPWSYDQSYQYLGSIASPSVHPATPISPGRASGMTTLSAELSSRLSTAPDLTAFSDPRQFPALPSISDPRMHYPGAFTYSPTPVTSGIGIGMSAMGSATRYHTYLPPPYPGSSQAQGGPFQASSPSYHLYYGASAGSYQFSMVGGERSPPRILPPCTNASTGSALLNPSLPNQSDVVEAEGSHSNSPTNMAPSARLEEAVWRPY

In the experiment the target is RUNX1 (UniProt Q01196). As to the kind of experiment: RUNX1 binding intensity (PBM fluorescence), RUNX1 alone (arbitrary fluorescence units); higher = stronger binding. The following applies: RUNX1 concentration 2 nM; ETS1 concentration 0 nM. How it is done:
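gcPBM on 36-bp genomic-derived probes (partner site mutated) containing one RUNX1 site and no ETS1 site. Recombinant human RUNX1 (2 nM) was incubated alone or with ETS1 (25 nM) and detected by anti-RUNX1 antibody fluorescence. Values are medians over 4 replicate spots (not normalised). The probes sit in constant array flanks that are not printed.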
Take AAAGGGAGGTTGGCGGGAGTTCAAAACCACCGGGGC: the RUNX1 binding intensity turned out to be 781.

AGGACTGTGGGTTAGCTGCTCTGGGAGGTGGCTGGG showed an RUNX1 binding intensity of 767.

TCTGAGCTCCCCACAGCACCGGCACTGGGTTTAGCT yielded an RUNX1 binding intensity of 698.

GGTACTTGCGGCTGAGCCAGCTGAAGAACGCCGGGA came in with an RUNX1 binding intensity of 757.

For the sequence ACACTGGGACGTGCCATGGCCAGCGGTTTCTTGCAA, the RUNX1 binding intensity amounted to 759.

The sequence CGGGCACGTCCTACCGCAGCAACGTGCGCCGCGCCG yielded an RUNX1 binding intensity of 911.

In turn, CGGGGTTGCCTGGTGGCTGCGAGCGGTGGGGACGGC showed an RUNX1 binding intensity of 757.

CAACAAGAGGAGATCAGAAACACTGAAGCCACAGCT yielded an RUNX1 binding intensity of 733.

CGAGCTCGGTGTGCCGCTTTTTGTGGGCCGGGTGGG returned an RUNX1 binding intensity of 784.

Regarding GGCATCCCCTTGCGGCCATCACTTTCTATGCCCTCA, the RUNX1 binding intensity is 1250.

In the case of AAGAGCAACATTGCCGCAGCACTTCAGGGACGTCGT, the RUNX1 binding intensity amounted to 690.

For the sequence CCGGCGGCCCGCAGTGCATGCCGGCAAACGTAGTTC, the RUNX1 binding intensity came out at 710.

In turn, TCCCAGCAACCACCTCAGCTGGCGCGCGGAGAACCC returned an RUNX1 binding intensity of 834.

In turn, GCCTTACTGCCGCAAACGTCAATTCCTTCGGCCGCT displayed an RUNX1 binding intensity of 1150.

Sequence CATGTGAACAGGGACCACAGACTTCCAACCTAAGAC yielded an RUNX1 binding intensity of 835.

In the case of CTTCTAGGCAATGTAGTTCCTGGGCCCACAGCCGGG, the RUNX1 binding intensity is 741.

On to ACCTCACCCACATAGTGTTAAGAAAGCGTTTCGTGC, for which the RUNX1 binding intensity was determined as 893.

GCGGCGCGTGCGGGGGAGGAGACGGTTCCAGGGGAC registered an RUNX1 binding intensity of 819.

As for CAGAACGGTCCCTGGAACACTGCGGTTCCCGCCTGG, the RUNX1 binding intensity was determined as 874.

As to CATTCATGTGGCTTATAGGCACACCCTGCCTGCCTA, the RUNX1 binding intensity was found to be 824.

On to CAACGCTTGCCGACCGCCAGCAGGAGGTGGTGGGCG, for which the RUNX1 binding intensity is 755.

AGCGACCGCTGCCGCTGCCGTGGATGGAGACGCTGC gave an RUNX1 binding intensity of 677.

With TTCTGACTCACCTGCCTGTAGGTTGGTTTTCTGCAT, the RUNX1 binding intensity came out at 770.

Consider GGAGAAATAGACCGCGCTTTGTGCGGAGGCTGTCAG, for which the RUNX1 binding intensity came to 733.

CCGAGTGGCGGTTGTTTCAAGATGGCGGAGGTGGCA yielded an RUNX1 binding intensity of 789.5 ± 6.2.

For ATGCAGAAAACCAACCTACAGGCAGGTGAGTCAGAA, the RUNX1 binding intensity was determined as 675.

Sequence GACTCCAGTTCCCGTCGGCTCGCGGTGGGAGCGCCG yielded an RUNX1 binding intensity of 875.

In the case of GCGCCCCGCTTACGGGGCCGCCCTAAACCGCGGCCG, the RUNX1 binding intensity was found to be 1390.

As to TCTTTGTGGTGGAGGTGGCAGGTCTTTCTTCAGCTG, the RUNX1 binding intensity is 1080.

The sequence GCGCAAGCAGCAAGCGTTTGCGGTGATCCCGGCGAC showed an RUNX1 binding intensity of 805.

GCGGGCGAAAGTGCCGAGGTTGTACCGCGGCGCTGG displayed an RUNX1 binding intensity of 664.

As to TTTCTGTGGCTGGACAGTTGGAGAAATGAGGACGTT, the RUNX1 binding intensity is 748.

For the sequence AACCCAGAGCTACCACACAGCACAGCATGCAGACAA, the RUNX1 binding intensity amounted to 1040.

Consider AGCTGTTCCACCACGCTCGGCGTGGGCCGCGGTGGG, for which the RUNX1 binding intensity stood at 805.

With TGCCTGCGGCCTGGGCTGGGTGTAGCCCCTGAACCT, the RUNX1 binding intensity is 710.

For the sequence TACACACCACAAACTCCTCACAGCCTCACTTGCTGT, the RUNX1 binding intensity worked out at 1530.

Consider TTTGATTGCCTGTCTCCATGTTGTGGTCAAGATTGC, for which the RUNX1 binding intensity stood at 1080.

For the sequence CCCAGAGGCAGCCCCATGCCAAGACCGCCAACGCCA, the RUNX1 binding intensity turned out to be 863.

GCGGAGGCGGCAGTCGTGCTGCTGCTGACCACGGCT: the RUNX1 binding intensity was 676.

In turn, GAGCCACCTGAAACGGAGCTGCGGCCGCGCCCCGCC came in with an RUNX1 binding intensity of 815.

For GCTTACGTCACGTTCGGCGCCTGCGGCCCACCCCTC, the RUNX1 binding intensity worked out at 919.

On to CAGGTGTCTGTGGCTGGGAGGAGACCCAGAGTCAGG, for which the RUNX1 binding intensity was found to be 718.

In the case of TGAAGGCAATTGACGAACACGTGACGCGGTCGGGCG, the RUNX1 binding intensity was 721.

Regarding CCGACACGATGGGTGAGCTGTTGTGGCCGGTTTAAG, the RUNX1 binding intensity was determined as 721.

Sequence GCTCAACTCACCCACAGAACATGAGGACGTTATACA gave an RUNX1 binding intensity of 1150.

The sequence GGCGTGCTGCGGTGCTGTCATTGCCTGGTGCCTTTT showed an RUNX1 binding intensity of 808.

Take GGGCAGGTGCGGCTGCCGAGGAGAGTGGTCACCTCG: the RUNX1 binding intensity is 700.

Sequence GGCCGACGGGAATTGTAGTCCGGCCTGCGGTCCGGG gave an RUNX1 binding intensity of 716.

The sequence TTGTGGTAGGGAAATCCACTTACCCCCTCCTCATGT came in with an RUNX1 binding intensity of 808.

The sequence CTCACCGCGAAGCCCAGGAGCGGCCAGCAAATGAGC returned an RUNX1 binding intensity of 770.

For GAAGAGTTGTGGGATGAGGGCTCGCGGACGATAAAA, the RUNX1 binding intensity was 739.

GGAGTGAGGAGCAAGCGGAGGCGAGACCGCGCTCAA had an RUNX1 binding intensity of 765.

Consider TTGCACTCTGCGGGGACGGGAGAAGGAACGAAAAAT, for which the RUNX1 binding intensity stood at 805.

In turn, CGGGCTCTCCAGCAAGGTGGCTGCGGCGACAAAATG had an RUNX1 binding intensity of 744.

Regarding CACGGAGCAGCCTGGAACTCTGCGGCCTGTGATTAC, the RUNX1 binding intensity is 825.

For GACGCAGCCGCAGAGCGATTCGCGTCCCGGGAGCGG, the RUNX1 binding intensity came out at 700.

Regarding CAGCCCCAGGCGGTTTAGTTTTTTAGGAGACCGAGA, the RUNX1 binding intensity worked out at 751.

In turn, CCACTCCAGGCAACTCCTCCAGGTGAGCCCACAACT came in with an RUNX1 binding intensity of 962.

The sequence CAGGACGCTGTCGCCGCAGCTTCTTCAGGCTAGCTG showed an RUNX1 binding intensity of 725.

The sequence ATGACTCATTGCCTCACTCTCTACTCCCACAGAACC gave an RUNX1 binding intensity of 1280.

On to GAGTTGCTTACGGCCGTGTTGGTGGTCTGAATTGAG, for which the RUNX1 binding intensity amounted to 827.

Consider CCAGAAACCACTTTCAGGTATGTGGAGAAGGAGGTC, for which the RUNX1 binding intensity amounted to 824.

The sequence ACAGCAAGTCAGCTGAGTACCGAGCAAGCCGCATGC yielded an RUNX1 binding intensity of 657.
